Targets include ACTR10 (UniProt Q9NZ32); ATP5PO (UniProt P48047); BCLAF1 (UniProt Q9NYF8); THRAP3 (UniProt Q9Y2W1); BROX (UniProt Q5VW32); CCT2 (UniProt P78371); CCT4 (UniProt P50991); TCP1 (UniProt P17987); CHCHD3 (UniProt Q9NX63); CLTC (UniProt Q00610); COPA (UniProt P53621); COX4I1 (UniProt P13073).
Assay in all cases: cross-linking mass spectrometry
Holding throughout (details): DSBSO, in cells or nuclear extract, not told apart

Not every entry of the source has a single result; some have several. The other results are left out here. There may be further records. Some entries list several cross-links; each record is another pair of residues.

Sequence of ERH (P84090 whole entry): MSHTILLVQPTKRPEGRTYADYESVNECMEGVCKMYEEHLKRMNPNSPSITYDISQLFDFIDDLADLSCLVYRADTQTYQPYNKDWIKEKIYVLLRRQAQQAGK
Sequence of CCT4, P50991 (P50991 whole entry): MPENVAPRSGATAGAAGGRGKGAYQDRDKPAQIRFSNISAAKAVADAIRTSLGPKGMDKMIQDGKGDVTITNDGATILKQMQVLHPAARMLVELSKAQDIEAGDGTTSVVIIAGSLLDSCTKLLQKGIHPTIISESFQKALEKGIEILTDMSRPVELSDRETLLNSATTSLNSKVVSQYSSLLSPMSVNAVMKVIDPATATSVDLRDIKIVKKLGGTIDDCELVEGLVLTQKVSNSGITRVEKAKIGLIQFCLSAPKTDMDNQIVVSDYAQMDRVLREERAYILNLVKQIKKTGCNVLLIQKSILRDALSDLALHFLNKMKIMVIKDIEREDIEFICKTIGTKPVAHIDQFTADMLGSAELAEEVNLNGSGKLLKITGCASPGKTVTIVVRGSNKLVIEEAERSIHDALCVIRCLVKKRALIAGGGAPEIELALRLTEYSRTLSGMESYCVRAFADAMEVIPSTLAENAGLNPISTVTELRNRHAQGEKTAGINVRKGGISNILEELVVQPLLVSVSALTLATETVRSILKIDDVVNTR
Sequence of CCT4 (P50991 whole entry): as above
Sequence of UniProt Q9Y2W1 (Q9Y2W1 whole entry): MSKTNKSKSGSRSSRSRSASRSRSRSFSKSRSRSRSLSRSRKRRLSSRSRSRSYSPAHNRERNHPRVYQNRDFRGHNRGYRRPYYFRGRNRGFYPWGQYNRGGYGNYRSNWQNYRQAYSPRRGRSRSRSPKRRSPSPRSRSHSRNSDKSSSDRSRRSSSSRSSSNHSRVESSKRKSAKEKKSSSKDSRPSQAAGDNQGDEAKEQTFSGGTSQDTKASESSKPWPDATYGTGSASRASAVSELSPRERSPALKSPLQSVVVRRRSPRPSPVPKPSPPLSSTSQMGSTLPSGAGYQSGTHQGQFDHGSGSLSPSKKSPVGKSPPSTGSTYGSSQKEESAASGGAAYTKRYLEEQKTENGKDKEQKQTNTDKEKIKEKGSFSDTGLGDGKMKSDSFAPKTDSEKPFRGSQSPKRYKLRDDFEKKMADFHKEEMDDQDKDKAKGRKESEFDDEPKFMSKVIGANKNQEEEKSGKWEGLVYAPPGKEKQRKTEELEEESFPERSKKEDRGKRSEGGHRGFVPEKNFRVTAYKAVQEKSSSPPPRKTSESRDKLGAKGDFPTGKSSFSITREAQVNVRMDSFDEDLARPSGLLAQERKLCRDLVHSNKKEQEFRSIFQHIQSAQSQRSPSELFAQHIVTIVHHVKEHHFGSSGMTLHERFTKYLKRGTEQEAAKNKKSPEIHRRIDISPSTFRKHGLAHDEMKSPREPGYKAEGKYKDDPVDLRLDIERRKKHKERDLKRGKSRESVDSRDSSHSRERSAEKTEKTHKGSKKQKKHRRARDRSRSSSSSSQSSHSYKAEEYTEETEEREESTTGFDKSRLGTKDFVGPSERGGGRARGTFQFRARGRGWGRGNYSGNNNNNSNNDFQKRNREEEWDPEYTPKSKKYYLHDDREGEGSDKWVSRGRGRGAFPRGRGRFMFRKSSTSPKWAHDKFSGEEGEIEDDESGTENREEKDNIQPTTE
Sequence of PDCD5 (O14737 whole entry): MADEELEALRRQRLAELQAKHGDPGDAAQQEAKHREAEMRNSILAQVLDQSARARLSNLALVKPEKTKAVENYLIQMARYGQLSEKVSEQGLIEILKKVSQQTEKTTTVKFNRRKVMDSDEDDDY
Sequence of TCP1 (P17987 whole entry): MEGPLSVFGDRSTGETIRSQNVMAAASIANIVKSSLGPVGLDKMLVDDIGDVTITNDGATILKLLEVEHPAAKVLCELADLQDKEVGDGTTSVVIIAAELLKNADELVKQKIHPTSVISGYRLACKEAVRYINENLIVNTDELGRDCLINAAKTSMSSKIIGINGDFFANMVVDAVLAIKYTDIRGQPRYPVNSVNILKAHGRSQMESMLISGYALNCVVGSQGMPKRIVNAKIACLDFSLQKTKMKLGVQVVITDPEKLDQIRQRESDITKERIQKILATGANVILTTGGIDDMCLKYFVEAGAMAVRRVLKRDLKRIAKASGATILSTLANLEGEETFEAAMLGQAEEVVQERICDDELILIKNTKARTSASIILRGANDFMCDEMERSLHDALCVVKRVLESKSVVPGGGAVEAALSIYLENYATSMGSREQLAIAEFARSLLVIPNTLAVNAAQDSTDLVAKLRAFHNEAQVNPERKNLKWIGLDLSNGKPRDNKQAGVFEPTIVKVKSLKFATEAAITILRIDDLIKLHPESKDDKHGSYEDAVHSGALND
Sequence of UniProt P78371 (P78371 whole entry): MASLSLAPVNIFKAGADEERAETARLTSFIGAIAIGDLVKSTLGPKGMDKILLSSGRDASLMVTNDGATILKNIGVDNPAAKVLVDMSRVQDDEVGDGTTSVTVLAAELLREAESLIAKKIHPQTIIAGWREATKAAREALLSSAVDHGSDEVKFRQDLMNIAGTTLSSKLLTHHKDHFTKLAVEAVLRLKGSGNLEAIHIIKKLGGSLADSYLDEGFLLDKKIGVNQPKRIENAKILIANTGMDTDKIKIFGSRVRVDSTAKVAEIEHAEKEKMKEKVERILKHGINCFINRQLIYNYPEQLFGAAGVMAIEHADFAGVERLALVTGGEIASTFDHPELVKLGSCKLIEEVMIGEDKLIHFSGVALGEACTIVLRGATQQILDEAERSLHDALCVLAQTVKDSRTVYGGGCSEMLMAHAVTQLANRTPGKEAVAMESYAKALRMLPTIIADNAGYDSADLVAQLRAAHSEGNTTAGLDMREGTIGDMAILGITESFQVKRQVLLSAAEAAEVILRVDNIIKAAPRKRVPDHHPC
Sequence of CCT5 (P48643 whole entry): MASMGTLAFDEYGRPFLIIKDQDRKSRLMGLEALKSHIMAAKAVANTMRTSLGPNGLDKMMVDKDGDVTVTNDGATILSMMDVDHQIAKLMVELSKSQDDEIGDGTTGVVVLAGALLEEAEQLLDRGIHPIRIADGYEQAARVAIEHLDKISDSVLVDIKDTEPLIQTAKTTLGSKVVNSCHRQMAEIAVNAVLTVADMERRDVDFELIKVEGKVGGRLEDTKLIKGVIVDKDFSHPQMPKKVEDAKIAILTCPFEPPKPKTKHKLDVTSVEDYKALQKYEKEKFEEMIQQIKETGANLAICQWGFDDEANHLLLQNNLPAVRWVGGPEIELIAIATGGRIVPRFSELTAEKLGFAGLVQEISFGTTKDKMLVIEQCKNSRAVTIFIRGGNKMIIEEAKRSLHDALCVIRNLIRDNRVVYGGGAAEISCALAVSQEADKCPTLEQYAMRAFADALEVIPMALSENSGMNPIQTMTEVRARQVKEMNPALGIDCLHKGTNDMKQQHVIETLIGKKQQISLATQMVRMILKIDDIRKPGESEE
Sequence of UniProt Q9NYF8 (Q9NYF8 whole entry): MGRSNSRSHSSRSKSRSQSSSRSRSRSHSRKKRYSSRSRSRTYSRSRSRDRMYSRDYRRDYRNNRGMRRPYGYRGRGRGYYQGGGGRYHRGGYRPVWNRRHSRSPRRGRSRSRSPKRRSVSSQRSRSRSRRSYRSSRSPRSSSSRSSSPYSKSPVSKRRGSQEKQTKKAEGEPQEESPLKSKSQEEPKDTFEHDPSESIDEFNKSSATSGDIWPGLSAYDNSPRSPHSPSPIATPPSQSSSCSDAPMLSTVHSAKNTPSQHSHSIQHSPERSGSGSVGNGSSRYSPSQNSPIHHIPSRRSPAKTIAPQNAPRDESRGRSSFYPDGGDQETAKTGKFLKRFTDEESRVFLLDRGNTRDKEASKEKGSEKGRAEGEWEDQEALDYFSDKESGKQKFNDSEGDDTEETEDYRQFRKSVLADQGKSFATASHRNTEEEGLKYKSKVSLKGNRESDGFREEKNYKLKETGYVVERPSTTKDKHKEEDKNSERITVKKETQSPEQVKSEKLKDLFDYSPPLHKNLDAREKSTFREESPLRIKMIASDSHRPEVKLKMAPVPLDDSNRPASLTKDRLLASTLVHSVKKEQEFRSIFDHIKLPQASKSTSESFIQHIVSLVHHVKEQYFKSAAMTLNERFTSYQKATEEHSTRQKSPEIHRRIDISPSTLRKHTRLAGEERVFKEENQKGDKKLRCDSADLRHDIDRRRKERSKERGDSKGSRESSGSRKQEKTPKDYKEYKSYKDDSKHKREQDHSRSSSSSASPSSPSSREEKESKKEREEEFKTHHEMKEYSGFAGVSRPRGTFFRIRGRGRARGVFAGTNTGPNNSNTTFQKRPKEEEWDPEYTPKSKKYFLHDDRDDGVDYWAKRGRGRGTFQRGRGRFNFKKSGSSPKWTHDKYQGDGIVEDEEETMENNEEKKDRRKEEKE
Sequence of CLTA (P09496 whole entry): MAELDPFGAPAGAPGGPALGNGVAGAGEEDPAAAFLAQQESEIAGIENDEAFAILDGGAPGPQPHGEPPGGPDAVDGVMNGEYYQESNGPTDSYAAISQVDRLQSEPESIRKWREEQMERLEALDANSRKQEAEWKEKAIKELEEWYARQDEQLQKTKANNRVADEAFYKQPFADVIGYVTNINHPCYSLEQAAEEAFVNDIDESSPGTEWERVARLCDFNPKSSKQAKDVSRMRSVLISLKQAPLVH
Sequence of COX5B (P10606 whole entry): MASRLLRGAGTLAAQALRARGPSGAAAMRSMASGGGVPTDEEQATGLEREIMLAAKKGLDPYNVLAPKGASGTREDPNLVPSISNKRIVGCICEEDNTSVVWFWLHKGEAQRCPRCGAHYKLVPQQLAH
Sequence of ATP5PB (P24539 whole entry): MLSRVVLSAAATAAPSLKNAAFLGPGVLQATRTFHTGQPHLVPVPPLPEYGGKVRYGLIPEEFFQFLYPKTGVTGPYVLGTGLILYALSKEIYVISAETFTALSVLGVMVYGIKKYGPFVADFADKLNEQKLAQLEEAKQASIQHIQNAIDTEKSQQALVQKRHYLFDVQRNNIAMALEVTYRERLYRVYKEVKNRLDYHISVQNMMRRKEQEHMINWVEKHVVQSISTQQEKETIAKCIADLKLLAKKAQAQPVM

As for RPL14, P50914, the cross-linked residues result with ACTR10 was “K132 - K334 and K137 - K334”. Turning to ATP5PB, P24539, the cross-linked residues result with ATP5PO is “K221 - K199 and K249 - K192”. In the case of ERH, P84090, the cross-linked residues result is “K12 - K593 and K90 - K637 and K90 - K676” in the experiment with BCLAF1; “K90 - K551 and K90 - K668 and K90 - K688 and K90 - K697” with THRAP3.

On to TCEA1, P23193, for which the cross-linked residues entry with BROX was “K19 - K334 and K55 - K334”. In the case of CCT5, P48643, in the experiment with CCT2, the cross-linked residues result was “K64 - K522 and K223 - K402 and K232 - K248 and K232 - K250 and K265 - K248 and K265 - K250 and K265 - K263 and K265 - K272 and K265 - K284 and K275 - K248 and K275 - K263 and K279 - K284 and K368 - K248 and K368 - K402 and K370 - K342 and K392 - K82”. Same read-out and setting: then CCT4, P50991, with “K21 - K119 and K21 - K120 and K21 - K522 and K292 - K272”. As for TCP1, P17987, the cross-linked residues result with CCT4 is “K126 - K55 and K538 - K21 and K541 - K79”. As for PDCD5, O14737, the cross-linked residues entry with CCT4 is “K63 - K395 and K110 - K395”; with TCP1, “K63 - K541 and K98 - K538”. Take IMMT, Q16891: the cross-linked residues result in the experiment with CHCHD3 is “K451 - K45 and K516 - K136”.

As to CLTA, P09496, the cross-linked residues entry with CLTC is “K136 - K1441 and K242 - K1535”. As to COPB1, P53618, the cross-linked residues result with COPA is “K712 - K631 and K949 - K631”. Regarding COX5B, P10606, the cross-linked residues entry in the experiment with COX4I1 was “K86 - K29 and K86 - K53”.

The values above are taken from PMC12350791.
